Among all 370,000 compounds or so, about 150 (0.041%) were called active. This list was built around the results that the source calls inconclusive (neither active nor inactive); the mix of calls is not that of the screen. Calls follow the shape of the dose curve; as a rule, active = well fitted inhibition curve with a large enough effect; inconclusive = small, poorly fitted or top-dose-only effect; inactive = flat fitted curve, though single readings scatter. No potency is given beside an inconclusive call; the fits are too rough.
biological target: Beta-lactamase (Escherichia coli (strain K12)) (UniProt P00811); experiment: qHTS Inhibitors of AmpC Beta-Lactamase (assay with detergent); conditions: AmpC hydrolysis of nitrocefin, absorbance 480 nm, 0.01% Triton; activity change, negative = inhibition: at 114 µM (top of the series); also: nearly all actives have a fitted effect of over 25% in size;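 as to activity change, negative = inhibition: 0% = no-compound wells and -100% = no-enzyme wells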
How it was run: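 AmpC (5.3 nM in the dispensed reagent) in 20 mM phosphate pH 7.0 with 0.01% (detergent screen) or 0.0001% Triton X-100 was preincubated with compounds for 15 min at room temperature. Nitrocefin was then added from an 800 uM solution, and hydrolysis was followed at 480 nm.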
Potency is read from the fitted curve at half-maximal effect; tags tell the direction and shape of the fitted curve.

UniProt P00811, sequence (P00811 whole entry, looked up): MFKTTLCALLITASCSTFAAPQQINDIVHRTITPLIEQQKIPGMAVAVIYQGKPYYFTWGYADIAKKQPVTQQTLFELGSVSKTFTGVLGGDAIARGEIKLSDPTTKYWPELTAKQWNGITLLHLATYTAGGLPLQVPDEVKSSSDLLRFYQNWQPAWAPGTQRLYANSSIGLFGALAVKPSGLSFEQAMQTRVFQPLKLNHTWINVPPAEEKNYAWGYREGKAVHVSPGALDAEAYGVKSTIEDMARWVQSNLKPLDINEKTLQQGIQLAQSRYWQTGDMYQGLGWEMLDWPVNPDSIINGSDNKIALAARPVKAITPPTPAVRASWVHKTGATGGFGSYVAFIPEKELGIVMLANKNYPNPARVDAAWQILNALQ

Structure (SMILES)	Potency	activity change, negative = inhibition
COc1ccc(OC)c(S(=O)(=O)N2CCCCC2C(=O)N2CCN(c3ccccn3)CC2)c1 (stereo not drawn)	inconclusive [inhibitor, full curve, poor fit]	
C=CCNC(=O)c1ccncc1	inconclusive [inhibitor, full curve, poor fit]	
Cc1ccc(NC(=O)CN(C)S(=O)(=O)c2ccc(Cl)s2)c(O)c1	inconclusive [inhibitor, full curve, poor fit]	
COc1ccc(C(=O)Nc2ccc(S(=O)(=O)Nc3cc(C)nc(C)n3)cc2)cc1	inconclusive [inhibitor, partial curve]	
O=C(CCS(=O)(=O)c1cc2c(cc1Cl)NC(=O)CO2)NCCc1ccccc1	inactive	
N=c1c(C(=O)NC2CCCCC2)cc2c(=O)n3ccccc3nc2n1Cc1ccco1		inactive: 5.89%
COC(=O)C1=C(C)N(c2ccccc2)/C(=C/c2cccs2)C1=O	inconclusive [inhibitor, full curve, poor fit]	
CCOC(=O)/C=C/C(=O)OCC(=O)Nc1cccc(Br)c1		inactive: 0.293%
Cc1ccc(CN2CCSc3ccc(C(=O)NC4CCN(Cc5ccccc5)CC4)cc32)cc1	inconclusive [inhibitor, single point]	
CN(C)c1ccc(/C=N/NC(N)=S)cc1[N+](=O)[O-]		inactive: 1.76%
Cc1ccc(C(=O)OCC(=O)N(C)C2CCS(=O)(=O)C2)cc1S(=O)(=O)N1CCOCC1 (stereo not drawn)	inconclusive [inhibitor, full curve, poor fit]	
COCCNC(=O)C(OC(=O)c1ccco1)c1ccccc1OC (stereo not drawn)	inconclusive [inhibitor, single point]	
c1coc(-c2nc(-c3ccco3)c(-c3ccco3)nc2-c2ccco2)c1	inconclusive [inhibitor, full curve, poor fit]	
Fc1ccc(Cn2nnc(-c3ccc(CN4CCOCC4)cc3)n2)cc1	inconclusive [inhibitor, single point]	
O=C(NCc1ccco1)c1cc(-c2cccc(Cl)c2)on1		inactive: 3.16%
CC(=O)Nc1ccc(S(=O)(=O)NCCC(=O)NCCc2ccc(F)cc2)cc1	inconclusive [inhibitor, single point]	
O=S(=O)(c1ccc(F)cc1)c1nc(-c2ccco2)oc1Nc1ccc(F)cc1	inconclusive [inhibitor, full curve]	
CC(NC(=O)Cn1ccc2cc(S(=O)(=O)N3CCCCCC3)ccc21)c1ccccc1 (stereo not drawn)		inactive: 22.1%
COc1cc(-c2nc(-c3ccc(-c4ccccc4)nc3OC)no2)cc(OC)c1OC		inactive: -14.2%
Cc1c(C(C)C)c(=O)n(-c2ccc(S(=O)(=O)NCc3ccccc3)cc2)n1C	inconclusive [inhibitor, single point]	
Oc1c(CN2CCCC(C(F)(F)F)C2)cc(Cl)c2ccccc12 (stereo not drawn)		inactive: -1.35%
[O-]C1=N/[N+](=C/c2ccccc2Cl)CC1	inconclusive [inhibitor, full curve]	

Structure (SMILES)	Potency	activity change, negative = inhibition
COc1ccc(OC)c(CNc2ncc(-c3cccc([N+](=O)[O-])c3)n2C)c1	inconclusive [inhibitor, full curve]	
COC(=O)CCNS(=O)(=O)c1ccc2ccccc2c1	inconclusive [inhibitor, partial curve]	
Cc1ccc(C(O)C(=O)c2ccco2)cc1 (stereo not drawn)	inconclusive [inhibitor, full curve, poor fit]	
COc1ccc(S(=O)(=O)Nc2ccc(S(=O)(=O)N3CCCC3)cc2)cc1	inconclusive [inhibitor, partial curve]	
O=C(c1cc2cc(Cl)ccc2[nH]1)N1CCN(c2ccccc2F)CC1	inconclusive [inhibitor, full curve]	
Cc1ccc(C(=O)NNc2nc3ccccc3nc2C(F)(F)F)cc1	inconclusive [inhibitor, partial curve, poor fit]	
Cc1cc(C(c2ccc(C)o2)c2ccc(C)o2)c(O)c([N+](=O)[O-])c1	inconclusive [inhibitor, full curve, poor fit]	
O=C(NC(C(=O)N/N=C/c1ccncc1)c1n[nH]c(=O)c2ccccc12)c1ccccc1 (stereo not drawn)		inactive: -2.68%
C=C(C)COc1ccc(-c2[nH]ncc2Oc2cccc(OC)c2)c(O)c1	inconclusive [inhibitor, full curve, poor fit]	
CCC(=O)Nc1sc2c(c1C#N)CC(C)(C)NC2(C)C	inconclusive [inhibitor, full curve, poor fit]	
O=[N+]([O-])c1ccc(N2CCN(c3ccc(F)cc3)CC2)cn1	inconclusive [inhibitor, partial curve]	
Cc1ccc(S(=O)(=O)N[C@H](C(=O)N2CCC(C(=O)N[C@@H](CC(=O)O)C(=O)O)CC2)C(C)C)cc1	inconclusive [inhibitor, full curve]	
CC(C)(CO)Nc1ccc([N+](=O)[O-])cc1[N+](=O)[O-]	inconclusive [inhibitor, partial curve, poor fit]	
CCOC(=O)C1CCN(C(=O)Cn2nc(CC)n3c(cc4sccc43)c2=O)CC1		inactive: 14.6%
C/C(=N\N)c1c(-c2ccccc2)c2cc(C)ccc2[nH]c1=O		inactive: 1.88%
O=C(OCc1c(Cl)cccc1Cl)c1cccnc1	inconclusive [inhibitor, full curve, poor fit]	
S=C(NCCc1ccccc1)Nc1ccccn1		inactive: 0.396%
COC(=O)CN1C(=O)[C@H]2[C@@H](c3ccc(C)o3)N3C(=O)CN(Cc4ccc(-c5ccccc5)cc4)C(=O)[C@@]3(C)[C@H]2C1=O		inactive: -3.6%
CC(C)(C)c1ccc(C2CC2C(=O)N/N=C\c2ccc[nH]2)cc1 (stereo not drawn)		inactive: 7.89%
Cc1ccc(-c2nc3ccccc3c(=O)n2Cc2ccccc2)cc1	inconclusive [inhibitor, full curve, poor fit]	
COc1ccc(C(=O)N2CCN(c3nc4cc(C)ccc4cc3C#N)CC2)c(OC)c1		inactive: -1.13%

Source: PubChem BioAssay AID485294 (National Center for Advancing Translational Sciences (NCATS), 2010)
